This note sets out measurements from publication PMC4336329 (PLoS ONE, 2015).

About 14,000 (4.5%) of roughly 310,000 compounds showed an effect of 50% or more. Effects have a minus sign here. The list shows a part of the results.
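Note: peak tail current of the secondary pulse compared with the same well before compound.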

This test deals with human ether-à-go-go-related gene (hERG) potassium channel (human, UniProt Q12809). Description: primary screen, population patch clamp on CHO cells stably expressing hERG.
human ether-à-go-go-related gene (hERG) potassium channel, sequence (Q12809 whole entry, looked up): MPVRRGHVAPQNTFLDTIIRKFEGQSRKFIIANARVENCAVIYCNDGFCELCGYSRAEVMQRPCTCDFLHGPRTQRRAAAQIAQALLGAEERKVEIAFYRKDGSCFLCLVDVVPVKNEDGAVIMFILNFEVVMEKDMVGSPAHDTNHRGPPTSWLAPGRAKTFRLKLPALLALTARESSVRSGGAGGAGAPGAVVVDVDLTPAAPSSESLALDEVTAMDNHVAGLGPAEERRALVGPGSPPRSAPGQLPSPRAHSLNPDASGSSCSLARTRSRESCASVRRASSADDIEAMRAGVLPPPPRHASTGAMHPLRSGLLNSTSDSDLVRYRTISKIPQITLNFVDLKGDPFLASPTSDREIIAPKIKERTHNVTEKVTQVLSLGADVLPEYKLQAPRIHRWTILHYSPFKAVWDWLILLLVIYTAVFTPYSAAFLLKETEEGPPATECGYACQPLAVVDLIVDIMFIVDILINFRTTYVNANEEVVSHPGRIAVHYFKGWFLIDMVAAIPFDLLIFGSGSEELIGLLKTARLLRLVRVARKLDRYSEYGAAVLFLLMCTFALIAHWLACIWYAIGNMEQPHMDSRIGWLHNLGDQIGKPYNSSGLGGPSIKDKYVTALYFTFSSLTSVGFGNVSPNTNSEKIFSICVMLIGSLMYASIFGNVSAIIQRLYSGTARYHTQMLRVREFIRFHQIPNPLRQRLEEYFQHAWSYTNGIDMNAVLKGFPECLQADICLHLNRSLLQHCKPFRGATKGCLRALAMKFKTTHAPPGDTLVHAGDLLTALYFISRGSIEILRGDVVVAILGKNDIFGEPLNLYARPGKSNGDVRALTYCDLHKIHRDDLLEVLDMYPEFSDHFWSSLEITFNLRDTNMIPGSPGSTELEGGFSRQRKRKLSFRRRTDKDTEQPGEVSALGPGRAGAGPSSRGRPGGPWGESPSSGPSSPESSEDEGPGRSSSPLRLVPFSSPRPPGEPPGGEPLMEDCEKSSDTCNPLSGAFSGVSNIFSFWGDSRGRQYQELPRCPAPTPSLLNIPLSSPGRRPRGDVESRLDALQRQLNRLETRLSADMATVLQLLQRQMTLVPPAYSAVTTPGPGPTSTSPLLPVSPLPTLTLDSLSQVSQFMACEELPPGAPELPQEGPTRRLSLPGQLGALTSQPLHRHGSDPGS
On to `CCOC(=O)C(C)Oc1cccc2c(=O)n(CC(=O)Nc3ccc4c(c3)OCCO4)ccc12` (centres unmarked), for which the “hERG current change (%, negative = inhibition) at 10uM” value is recorded as 15.1%.
Then `CCOC(=O)c1nn(-c2ccccc2)c(=O)c(C#N)c1C`, with 13.5%.
Consider `O=C(COc1ccccc1)N/N=C/c1sc(=O)n(Cc2cccc(C(=O)O)c2)c1Cl`, for which the “hERG current change (%, negative = inhibition) at 10uM” value is 13.9%.
Turning to `NS(=O)(=O)c1ccc(-n2nncc2-c2ccco2)cc1`, the “hERG current change (%, negative = inhibition) at 10uM” value is recorded as 17.8%.
Then `O=C(CCN1CCN(S(=O)(=O)c2cccc([N+](=O)[O-])c2)CC1)Nc1ccccc1F`, with -6.5%; and `CCN(CC)C(=O)CSc1nnnn1-c1ccc(F)c(Cl)c1`, with -3.28%.
Take `COc1ccc(-n2ncc3c(N4CCN(c5cc(C)ccc5C)CC4)ncnc32)cc1`: the “hERG current change (%, negative = inhibition) at 10uM” value amounted to 2.95%.
Then `O=C(CNC(=O)c1ccccc1)N/N=C/c1ccccc1Cl`, with -0.473%; and `Fc1ccccc1Cc1noc(CN2CCCC(CN3CCOCC3)C2)n1` (centres unmarked), with -1.22%; and `Cc1ccc(S(=O)(=O)N2CCC(C(=O)N/N=C/c3ccccc3[N+](=O)[O-])CC2)cc1`, with 8.21%.
With `Cc1ncc(S(=O)(=O)c2ccc(Cl)cc2)c(N)n1`, the “hERG current change (%, negative = inhibition) at 10uM” value is given as -0.624%.
Then `CCC(Sc1nc2c(c(=O)n1CC)SC(C)C2)C(=O)OC` (centres unmarked), with 3.32%.
Then `CCNS(=O)(=O)c1ccc2c3c(cccc13)C(=O)N2`, with 1.85%; and `CC(C)(C)OC(=O)N1CCC(NC(=O)c2ncn(Cc3ccccc3)c2C(=O)NC2CCN(C(=O)OC(C)(C)C)CC2)CC1`, with 12.1%.
The result for `NC(N)=NCc1cccc(I)c1.O=S(=O)(O)O` reads 11.6%; that for `CCN(CC)C(=O)CSC(Nc1ccc(F)cc1)=C(C#N)C#N`, 7.9%.
As to `CCC1SC(CC)C(=O)N(CC(=O)NCCc2ccccc2)C1=O` (centres unmarked), the “hERG current change (%, negative = inhibition) at 10uM” value came out at 5.62%.
As for `CCOc1ccccc1N1CCN(C(=O)CNC(=O)c2ccc(OC)c(OC)c2)CC1`, the “hERG current change (%, negative = inhibition) at 10uM” value came out at 11.9%.
The result for `O=[N+]([O-])c1ccc2cn(-c3ccccc3)nc2c1` reads -0.226%; that for `Cc1c(C)n(CCN(C)C)c2ncnc(NCc3ccccc3)c12`, -36.8%.
The result for `C=CCC1(O)C(=O)N2C(=C1C(=O)N1CCOCC1)c1ccccc1CC2(C)C` (centres unmarked) reads 0.705%.
As to `COc1ccc(Nc2nccc(-c3ccc(C#N)cc3)n2)cc1`, the “hERG current change (%, negative = inhibition) at 10uM” value worked out at 1.36%.
The result for `COC(=O)CNC(=O)c1cc(-c2ccncc2)nc2ccc(C)cc12` reads -2.87%.
As to `Cc1ccnc(NC(=O)C(Cc2ccccc2)NC(=O)c2ccccc2)c1` (centres unmarked), the “hERG current change (%, negative = inhibition) at 10uM” value was -0.154%.
Then `Cc1ccc(NC(=O)Cn2c(=O)oc3ccccc32)cc1C`, with 18.3%; and `O=C(C1CC1)N1CCc2cc(Br)cc(S(=O)(=O)N3CCN(c4ccccn4)CC3)c21`, with -17.5%; and `O=C(O)c1ccc2c(c1)C(=O)N(Cc1ccco1)C2=O`, with 24.2%.
The result for `O=C(c1cccc(C(F)(F)F)c1)c1c[nH]c(C(=O)NCCCN2CCOCC2)c1` reads -33.6%; that for `O=C(c1ccc([N+](=O)[O-])cc1)N(Cc1cccs1)C1CCS(=O)(=O)C1` (centres unmarked), -50%; that for `COc1ccc(C(=O)NC(=S)Nc2cccnc2)cc1[N+](=O)[O-]`, 4.69%.
The result for `CCc1ccc(NC2=NCC(c3ccccc3)S2)cc1` (centres unmarked) reads -17.5%; that for `C/C(=N\N1CCN(c2ccccc2)CC1)c1ccccc1O`, 8.08%; that for `COc1ccc(C2NCCc3[nH]cnc32)cc1` (centres unmarked), 8.12%.
Take `N#C/C(C(=O)N1CCOCC1)=C1/SC(Cc2ccccc2Cl)C(=O)N1c1ccccc1` (centres unmarked): the “hERG current change (%, negative = inhibition) at 10uM” value is listed as -23.1%.
For the compound `COc1ccc(S(=O)CC(=O)Nc2ccc(Cl)cc2Cl)cc1` (centres unmarked), the “hERG current change (%, negative = inhibition) at 10uM” value is -6.26%.
The result for `O=C(CN1CCCC1)NN=C(c1ccccc1)c1ccccc1` reads -68.3%; that for `COc1ccc(OC)c(C(=O)N/N=C/c2ccccn2)c1`, 8.66%; that for `C[C@@H]1CC=C[C@H]2[C@H]1C(=O)N(Cc1ccccc1)[C@H]2c1ccoc1`, 3.54%.
Take `CCc1ccc(OCc2nnc(NC(=O)c3cccs3)s2)cc1`: the “hERG current change (%, negative = inhibition) at 10uM” value was found to be 2.52%.
The result for `CCCc1c(C(=O)Nc2ccc(F)cc2)cnn1-c1ccccc1` reads 12.5%.
As to `Cc1cc(Nc2ccc(C(=O)O)cc2)n2nc(C)nc2n1`, the “hERG current change (%, negative = inhibition) at 10uM” value is recorded as -1.96%.
The result for `CC(C)OC(=O)/C(C#N)=C/c1cn(C)c2ccccc12` reads -0.828%; that for `CCOC(=O)Cn1c(C)c(C#N)c2ccccc21`, 4.19%; that for `COc1ccccc1Nc1nc(C)nc2c1oc1ccccc12.Cl`, -8.48%.
